B1: CPEB3 Ribozyme (parent)
chain: UAACAGGGGGCCACAGCAGAAGCGUUCACGUCGCAGCCCCUGUCAGAUUCUGGUGAAUCUGCGAAUUCUGCUGUAUAUCUC

The values below come from the RNAGym collection of RNA variant scans (doi:10.1093/nar/gkz1192).

Read counts are not given, so values of variants with three or more changes are uncertain.

In this series the parent is B1. The experiment in a line: self-cleavage, relative activity (ratio to wild type); higher = more cleavage; in vitro, sequencing. In outline:
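Relative activity was defined as the cleaved/total read fraction for a variant divided by the same fraction for the unmutated ribozyme. CPEB3 self-cleaving ribozyme libraries were made by rounds of error-prone PCR, barcoded, and transcribed in vitro with T7 RNA polymerase for 5 hours at 37°C, and cleavage ran through transcription plus a 15 min DNase I step before EDTA. Illumina sequencing of template-switched reverse transcripts gave the reads, and DNA sequencing mapped the barcodes. Averages come from three batches, using variants with at least 5 reads.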
Consider UAACAGGGGGCCACAGCGGAAGCGUUCUCGACGCAGCCCCUGUCAGAUUCUGGUGAAUCUGCGAACUCAGCUGUAUAUCUC [A18G A28U U31A U66C U69A], for which the self-cleavage came out at 0.14.
As for UAACAGGGGGCCACAGCGGAAGCGUUCCCGUCGCAGCCCCUGACAGACUCUGGCGAAUCUGCGAAUUCUGCUGUAUAUCAC [A18G A28C U43A U48C U54C U80A], the figure is 0.01.
As for UAACAGGGGGCCACAGCGGAAGCGUUCACGUCGCGGCCCCUGUCAGAUUCUGGUGAGUCUGCGAACUCUGCUGUAUAUCUC [A18G A35G A57G U66C], the figure is 0.48; as for UAACAGGGGGCCACAGCGGAAGCGUUCACGUCGCUGCCCCUGUCAGAUUCUGGUGAAUCUGUGAAUUCUGCUGUAUAUCUC [A18G A35U C62U], 0.42.
The figure for UAACAGGGGGCCACAGCGGAAGCGUUCGCGUCGCAGCCUCUGUCAGAUUCUGGCGAAUCUGCGAAUUCUGCUGUGUAUCUC [A18G A28G C39U U54C A75G] is 0.29.
UAACAGGGGGCCACAGCGGAAGCGUUCGCGUCGCAGCCCCGGUCAGAUUCUGGUGAAUCUGCGAAUUCUGCUGUAUAUCUC [A18G A28G U41G]: the self-cleavage worked out at 0.23.
As for UAACAGGGGGCCACAGCGGAAGCGUUCACGUCGCGGCCCCGGUCGGAUUCUGGUGAAUCUGCGAAUUCUGCUGUACAUCUC [A18G A35G U41G A45G U76C], the figure is 0.08; as for UAACAGGGGGCCACAGCGGAAGCGUUCACGUCGCCGCCCCUGUCAGAUUCUGGUGAAUCAGCGAAUCCUGCUGUAUUUCUC [A18G A35C U60A U67C A77U], 0.18.
Consider UAACAGGGGGCCACAGCGGAAGCGUUCACGUCGCAGCCCCUGUCGGGUUCUGGUAAAUCUGCGAAUUCUGCUGUAUAUCUC [A18G A45G A47G G55A], for which the self-cleavage came to 0.12.
In the case of UAACAGGGGGCCACAGCGGAAGCGUUCACGUCGCGGCCCCUGUCCGAUUCUGGUGAAUCUGCGAAUUCUGCUGUAAAUCUC [A18G A35G A45C U76A], the self-cleavage came out at 0.42.
As for UAACAGGGGGCCACAGCGGAAGCGUUCACGUCGCGGCCCCUGUCAGAUUCUGGUGAAUUUGCGGAUCCUGCUGUAUAUCUC [A18G A35G C59U A64G U67C], the figure is 0.21.
For the variant UAACAGGGGGCCACAGCGGAAGCGUUCGCGACGCAGCCCCUGACAGAUUCUGGUGAGUCUGCGAAUUCUGCUGCAUUUCUC [A18G A28G U31A U43A A57G U74C A77U], the self-cleavage came out at 0.2.
As for UAACAGGGGGCCACAGCGGAAGCGUUCGCGUCGCAGCCCCUGUCAGAUUCCGGUGAAUCUGCGAAUUCUGCUGUAUAUCUC [A18G A28G U51C], the figure is 0.54; as for UAACAGGGGGCCACAGCGGAAGCGUUCUCGUCGCAGCCCCUGUCAGAUUCUGGUGAAUCUGCGAGUUCUGCUGUAUAUCUC [A18G A28U A65G], 0.14.
The figure for UAACAGGGGGCCACAGCGGAAGCGUUCGCGUCGCAGCCCCUGUCAGAUUCUGGUGAAUCUGCGAAAUCUGCUGUAUACCUC [A18G A28G U66A U78C] is 0.18; for UAACAGGGGGCCACAGCGGAAGCGUUCACGUCGCGGCCCCUGUCAGAUUCUGGUGAUUCGGCGAAUUUUGCUGUAGAUCUC [A18G A35G A57U U60G C68U U76G] it is 0.23; for UAACAGGGGGCCACAGCGGAAGCGUUCACGUCGCUGCCCCUGACAGAUUCUGGUGAACCUGCGAAUUCUGCUGUAUAUCUC [A18G A35U U43A U58C] it is 0.16.
As for UAACAGGGGGCCACAGCGGAAGCGUUCCCGUCGCAGCCCCUGUCAGAUCCUGGUGAAUGUGCGAAUUCUGCUGUAUAUCUC [A18G A28C U49C C59G], the figure is 0.06; as for UAACAGGGGGCCACAGCGGAAGCGUUCACGUCGCGGCCCCUGUCAGAUUCUGGUGAAUAUGCGAAUCCUGCUGUAUAUCUC [A18G A35G C59A U67C], 0.2.
As for UAACAGGGGGCCACAGCGGAAGCGUUCGCGUCGCAACCCCUGUCAGAUUCUGGUGAAUCUGCGAAUUCUGCUGUAUUUCUC [A18G A28G G36A A77U], the self-cleavage was 0.17.
As for UAACAGGGGGCCACAGCGGAAGCGUUCACGUCGCGGCCUCUGUCAGAUUCUGGUGGAUCUGCGAAUUCUGCUGUAUAUCUC [A18G A35G C39U A56G], the figure is 0.42.
UAACAGGGGGCCACAGCGGAAGCGUUCGCGUCGCAGCCCCUGUCAGAUUCUGGUGGGUCUGCGAAUACUGCUGUAUAUCUC [A18G A28G A56G A57G U67A]: the self-cleavage came to 0.05.
The figure for UAACAGGGGGCCACAGCGGAAGCGUUCACGUCGCAGCCCCUGUCGGAUUCUGGUGGAUCUGCGAAUUCUGCUGUAUAUCUC [A18G A45G A56G] is 0.36; for UAACAGGGGGCCACAGCGGAAGCGUUCUCGUCGCAGCACCUGUCAGAUUCUGGUGAAUCUGCGAAUUCUGCUGUAUAUCUC [A18G A28U C38A] it is 0.27; for UAACAGGGGGCCACAGCGGAAGCGUUCACGUCGCGGCCCCUGCCGGAUUCUGGUGAAUCUGCGAAUUCUGCUGUACAUCUC [A18G A35G U43C A45G U76C] it is 0.23.
As for UAACAGGGGGCCACAGCGGAAGCGUUCUCGUCGCAGCCCCCGUCAGAUUCUGGUGAAUCUGCGAAUUCUGCUGUAUAUCUC [A18G A28U U41C], the self-cleavage worked out at 0.5.
As for UAACAGGGGGCCACAGCGGAAGCGUUCACGUCGCAGCCCCUGUCGGAUUCCGGUGUAUCUGCGGAUUCUGCUGUAUAUCUC [A18G A45G U51C A56U A64G], the figure is 0.1; as for UAACAGGGGGCCACAGCGGAAGCGUUCGCGUCGCAGCCCCUGUCAGAUUCUGGUGAAUCAGCGAAUGCCGCUGUAUAUCUC [A18G A28G U60A U67G U69C], 0.16.
The figure for UAACAGGGGGCCACAGCGGAAGCGUUCACGUCGCUGCCCCUGUCAGGUUCUGGUGAAUCUGCGAAUUCUGCUGUAUAUCUC [A18G A35U A47G] is 0.12; for UAACAGGGGGCCACAGCGGAAGCGUUCACGUCGCAGCCCCUGUCCGAUCCUGGUGAAUCUGCGAAUUCUGCUGUAUAUCUC [A18G A45C U49C] it is 0.2.
The figure for UAACAGGGGGCCACAGCGGAAGCGUUCACGUCGCGGCCCCUGUCAGAUACUGGUGAAUCUGCGAACUCUGCCGUAUAUCUC [A18G A35G U49A U66C U72C] is 0.16; for UAACAGGGGGCCACAGCGGAAGCGUUCACGUCGCUGCCCCUGUCAGAUUCAGGUGAAUCUGCGAAUUCUGCUGUAUAUCUC [A18G A35U U51A] it is 0.11; for UAACAGGGGGCCACAGCGGAAGCGUUCGCGUCGCAGCCCCUGUCAGAUUCUGGUGAAUCUGCGAAUUCUGCUGUAUUUCUC [A18G A28G A77U] it is 0.15.
UAACAGGGGGCCACAGCGGAAGCGUUCACGUCGCGGCCCCUGUCAGAUUCUGGUGUAUCUGCGAAUUCUGCUGUAUAUCUC [A18G A35G A56U]: the self-cleavage is 0.77.
